Test results reported in patent publication US20220411514A1, “ANTI-GAL3 ANTIBODIES AND METHODS OF USE FOR INSULIN RESISTANCE” (TrueBinding, Inc., priority 2021, published 2022).

Legend:
L6 myoblasts = assay: Antibody internalization into skeletal muscle cells; assay type: cell-based, rat; conditions: with 2 or 10 μg/mL Gal3 or without Gal3, 3 hours
Protocol: It was tested whether anti-Gal3 antibodies were internalized into skeletal muscle cells. L6 myoblasts were seeded at a density of 10000 cells per well in a black clear bottom 96 well plate in L6 complete medium. The next day, the cells were serum starved using serum-free medium in the morning for 2 hours before proceeding with the following internalization experiment. […] The fluorophore-conjugated antibodies were then mixed with Gal3 protein (2 μg/mL or 10 μg/mL Gal3) or without Gal3 as control, and this mixture was added to the myoblasts. After 3 hours of incubation, fluorescent images of the cells were taken.

[1] = target: interaction between Gal3 and GLUT4 (Homo sapiens, UniProt P17931); assay: Gal3-GLUT4 blocking ELISA; assay type: binding; conditions: antibody 3-fold dilutions
interaction between Gal3 and GLUT4, sequence (P17931 whole entry): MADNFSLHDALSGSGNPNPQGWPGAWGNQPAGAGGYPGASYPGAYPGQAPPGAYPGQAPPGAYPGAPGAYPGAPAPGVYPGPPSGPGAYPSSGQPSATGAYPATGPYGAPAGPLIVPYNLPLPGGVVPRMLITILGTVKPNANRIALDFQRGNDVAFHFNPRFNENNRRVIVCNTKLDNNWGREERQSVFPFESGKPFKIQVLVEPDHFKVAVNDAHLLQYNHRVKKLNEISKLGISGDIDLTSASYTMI
Protocol: Human Gal3 protein was diluted in PBS to a concentration of 2 μg/mL and used to coat a 96-well ELISA plate with 40 μL per well. After incubating the plate at 4° C. overnight, the plate was washed three times with 300 μL PBST. A blocking step was performed with 150 μL of 2% BSA in PBST per well and incubated for an hour at RT with gentle rocking. The existing blocking solution was then discarded form the plate. […] 30 μL of 3 μg/mL of FLAG-tagged GLUT1 or GLUT4 protein diluted in 2% BSA in PBST was then added to the appropriate wells containing antibody or control solution. The plate was incubated for an hour at RT with gentle rocking and then washed three times with 300 μL PBST. Afterwards, HRP-tagged anti-FLAG antibody was diluted to 1:4000 in 2% BSA in PBST, and 25 μL was added to all of the wells. The plate was incubated for an hour at RT with gentle rocking, and then washed with 300 μL PBST three times. To develop the plate, 50 μL of ABTS substrate was added to each well and incubated until a sufficiently high signal was achieved. The plate was read with a plate reader at an absorbance of 405 nm. Data was graphed using GraphPad Prism 8.0 software and IC50 values were generated using manufacturer instructions.

mouse Gal3 = mouse Gal3 (Mus musculus, UniProt P16110); assay: Affinity kinetics to mouse Gal3 (Carterra LSA); assay type: binding; conditions: Example 14
mouse Gal3, sequence (P16110 whole entry): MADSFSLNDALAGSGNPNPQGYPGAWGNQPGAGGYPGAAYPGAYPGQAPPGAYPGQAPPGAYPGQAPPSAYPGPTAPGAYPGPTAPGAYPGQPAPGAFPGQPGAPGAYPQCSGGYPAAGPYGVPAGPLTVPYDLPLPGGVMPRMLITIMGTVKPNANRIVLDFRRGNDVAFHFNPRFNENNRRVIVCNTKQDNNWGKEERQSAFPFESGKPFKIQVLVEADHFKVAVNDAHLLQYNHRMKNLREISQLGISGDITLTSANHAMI
Protocol: Kinetics experiments were performed on a Carterra LSA at 25° C.
Then, a dilution series of Gal3 (2, 4, 8, 16, 32, 64, and 128 nM) in HBSTE with 0.5 mg/mL BSA was injected to the whole array for 300 seconds to allow association followed by dissociation for 240 seconds. The kinetics constants were calculated by the software NextGenKIT.
The affinity of Gal3 binding to antibody was determined by acquiring real time Ligand:Analyte binding kinetics data and fitting the data with a 1:1 monovalent binding model. The kinetic evaluation procedure determines association and dissociation constants by fitting the experimental data to a 1:1 interaction model between analyte A and ligand B:
The affinity KD is the result of Kd divided by Ka.
The protocol disclosed in Example 9 was generally followed.

[2] = system: GLUT4 translocation in L6 GLUT4myc myoblasts; assay: Insulin-independent GLUT4 translocation by Gal3-antibody complex; assay type: cell-based, rat
Protocol: (§1) Rat L6 GLUT4myc myoblasts (Kerafast #ESK202-FP) express a Myc-tagged GLUT4 that can be detected with an anti-Myc antibody. These cells were grown in a 48-well plate in MEM u growth media (Gibco, #12-571-063)+10% fetal bovine serum (FBS; Corning #35-016-CV) until 90-95% confluence was reached. Cells were then washed in PBS and serum starved for 2 hours in MEM u growth media without FBS. Thirty (30) μg/mL recombinant human Gal3 (TrueBinding QCB200347) was pre-incubated with 60 μg/mL anti-Gal3 antibodies for 30 minutes before being added to the serum-starved cells for 1 hour at 37° C. At the end of incubation, half of the cells were treated with 100 nM insulin (Sigma-Aldrich #I5523-50MG) for 20 minutes while the other half acted as basal controls. After 20 minutes, cells were washed quickly with ice cold PBS twice, then incubated with 4% paraformaldehyde (Boster Bio #AR1068) for 10 minutes on ice followed by 10 minutes at room temperature. The cells were washed three times with PBS, then blocked with 0.5 mL 5% goat serum (Vector Laboratories #101098-382) in PBS for 15 minutes. […] Samples were read at 450 nm on a SpectraMax plate reader. […] Statistical significance was determined using unpaired T-tests comparing samples treated with Gal3 and insulin with all other conditions. […]

[3] = system: GLUT4 translocation in L6 GLUT4myc myoblasts; assay: Insulin-independent GLUT4 translocation with Gal3 mutants complexed with antibody; assay type: cell-based, rat; conditions: no insulin
Protocol: as §1

[4] = system: GLUT4 translocation in L6 GLUT4myc myoblasts; assay: Insulin-stimulated GLUT4 translocation with Gal3 and anti-Gal3 antibody; assay type: cell-based, rat; conditions: 30 μg/mL Gal3 pre-incubated with 60 μg/mL antibody, 100 nM insulin
Protocol: Rat L6 GLUT4myc myoblasts (Kerafast #ESK202-FP) express a Myc-tagged GLUT4 that can be detected with an anti-Myc antibody. These cells were grown in a 48-well plate in MEM u growth media (Gibco, #12-571-063)+10% fetal bovine serum (FBS; Corning #35-016-CV) until 90-95% confluence was reached. Cells were then washed in PBS and serum starved for 2 hours in MEM u growth media without FBS. Thirty (30) μg/mL recombinant human Gal3 (TrueBinding QCB200347) was pre-incubated with 60 μg/mL anti-Gal3 antibodies for 30 minutes before being added to the serum-starved cells for 1 hour at 37° C. At the end of incubation, half of the cells were treated with 100 nM insulin (Sigma-Aldrich #I5523-50MG) for 20 minutes while the other half acted as basal controls. After 20 minutes, cells were washed quickly with ice cold PBS twice, then incubated with 4% paraformaldehyde (Boster Bio #AR1068) for 10 minutes on ice followed by 10 minutes at room temperature. The cells were washed three times with PBS, then blocked with 0.5 mL 5% goat serum (Vector Laboratories #101098-382) in PBS for 15 minutes. After the blocking agent was aspirated from the cells, 1 μg/ml anti-Myc polyclonal antibody (Sigma-Aldrich #C-3956) in 5% goat serum was added for 1 hour. […] Primary antibody was aspirated away, and then cells washed 5 times with PBS. Next, cells (including background controls) were incubated with 1:1000 goat anti rabbit antibody secondary antibody (Abcam #Ab97051) in 5% Goat serum for 30 minutes at room temperature. After washing, cells were incubated with 400 μL of TMB (Thermo Scientific #PI34029) for 5 minutes, then 200 μL of 1N HCL (Avantor Performance #JT5620-2) was added to stop the reaction. 100 μL of the sample was transferred to a 96 well plate with duplicates transferred for each condition. Samples were read at 450 nm on a SpectraMax plate reader. […] The fold changes were plotted on GraphPad Prism and presented as mean (SEM) of the technical replicates. Statistical significance was determined using unpaired T-tests comparing samples treated with Gal3 and insulin with all other conditions.

B1: TB006: humanized anti-Gal3 antibody derived from mouse mAb, hIgG4 backbone (antibody)
heavy: QVQLVQSGAEVKKPGASVKVSCKASGYSFTNYYMHWVRQAPGQRLEWMGWIYPGSGNTNYNEKFQGRVTITADTSASTAYMELSSLRSEDTAVYYCSTAPGGFDVWGQGTTVTVSSASTKGPSVFPLAPCSRSTSESTAALGCLVKDYFPEPVTVSWNSGALTSGVHTFPAVLQSSGLYSLSSVVTVPSSSLGTKTYTCNVDHKPSNTKVDKRV[in this place human IgG4 Fc with S228P (EU numbers)]
light: DIVMTQTPLSLSVTPGQPASISCKSSKSLLHSDGITYLYWYLQKPGQSPQLLIYRMSNLASGVPDRFSGSGSGTDFTLKISRVEAEDVGVYYCAQMLEFPLTFGQGTKLEIKRTVAAPSVFIFPPSDEQLKSGTASVVCLLNNFYPREAKVQWKVDNALQSGNSQESVTEQDSKDSTYSLSSTLTLSKADYEKHKVYACEVTHQGLSSPVTKSFNRGEC
modifications: TB006 heavy chain peptide sequence; TB006 light chain peptide sequence
notes: humanized anti-Gal3 antibody derived from mouse mAb, hIgG4 backbone
- internalization of fluorophore-conjugated antibody into myoblasts (L6 myoblasts): internalized into the myoblasts only in the presence of Gal3
- inhibition of GLUT4 binding to Gal3 [1]: concentration-dependent ability
- average affinity to mouse Gal3 (mouse Gal3): did not show any binding activity
- surface GLUT4 levels, preincubated antibody-Gal3 complex ([2]; 30 μg/mL human Gal3 + 60 μg/mL antibody, no insulin): increased surface GLUT4 levels independent of insulin
- GLUT4 translocation, antibody alone ([2]; no Gal3, no insulin): did not result in comparable induction of GLUT4 translocation
- insulin-independent GLUT4 translocation, antibody complexed with hGal3 amino acids 2-112 (N-terminal domain) [3]: significantly reduced GLUT4 translocation
- insulin-independent GLUT4 translocation, antibody complexed with hGal3 amino acids 111-250 (C-terminal domain) [3]: significantly reduced GLUT4 translocation
- effect on Gal3 block of insulin-stimulated GLUT4 translocation [4]: reduce the ability of Gal3 to block GLUT4 translocation
